The subject of assay [1] is Measles virus (MV), strain Chicago. Kind of assay: microbe, parasite or virus in culture. The conditions noted are these: Measles morbillivirus.
Assay [2] shares this test system. As to the kind of experiment: microbe, parasite or virus in culture. The conditions noted are these: Measles morbillivirus. This is another data set of the same source.
Where [3] appears, read: read-out: EC50 against the measles virus.

Read-outs that look alike come from different tables or passages of the source.

`Cl.Cl.Nc1ncnc2c([C@@H]3N[C@H](CO)[C@@H](O)[C@H]3O)c[nH]c12` [compound 12i, (2S,3S,4R,5R)-2-(4-amino-5H-pyrrolo[3,2-d]pyrimidin-7-yl)-5-(hydroxymethyl)pyrrolidine-3,4-diol dihydrochloride]: the EC50 in assay [1] came out at 1.4 µg/mL; in assay [1] (setting [3]) it was 1.4 µg/mL; in assay [2] it was 0.6 µg/mL; in assay [2] (setting [3]) it was 0.6 µg/mL.

(Values after patent US9580428B2, “Compositions and methods for inhibiting viral polymerase” (priority 2012, dated 2017).)
